The % Inhibition is the change of the read-out against control, counted positive when it falls.

Molecules are shown by their SMILES. In all, about 150,000 compounds went through this assay and about 540 (0.36%) showed an effect of 50% or more. The list shows a part of the results.

In the assay the test system is Plasmodium falciparum. The assay is described as follows: Primary screen in NF54 nanoGlo assay, in single point, at 2uM, 72h; a lower Z score goes with more inhibition. It counts as functional, Erythrocyte. To be noted: timepoint 72 hour.
Take `COc1cc(NS(=O)(=O)c2ccc(C)s2)ccc1N1CCCCC1=O`: the “% Inhibition” value is -15% and the Z score was 2.28.
In the case of `Cc1ccc(C)c(C(=O)COc2ccc(C)cc2C(=O)Nc2ccncc2)c1`, the “% Inhibition” value was -7% and the Z score was found to be 1.25.
The like results for `CC[C@H]1COCCN1C(=O)Nc1ccc(Oc2ccccc2)cc1` were, in that order, -7% and 1.26.
In the same order, the values of `Cc1cncc(C(=O)OCCc2c(C)n[nH]c2C)c1` are -20% and 1.71.
In the same order, the values of `O=C(NCCc1ccccc1)N1CCC(CO)(C[C@H]2CCCCO2)CC1` are -35% and 3.09.
For the compound `Cc1nnsc1C(=O)N1C[C@@H](CN2C[C@@H](C)O[C@@H](C)C2)[C@@H](CO)C1`, the “% Inhibition” value is on record as 0% and the Z score turned out to be 0.06.
As for `Cc1ccc(Br)cc1C(N)=O`, the “% Inhibition” value is -2% and the Z score amounted to 0.28.
Turning to `O=C1NC2(CCCC2)C(=O)N1CC(=O)N1CCC[C@H]1c1ccc2c(c1)OCCCO2`, the “% Inhibition” value is -8% and the Z score was found to be 1.03.
As for `CCOC(=O)CCC(=O)N[C@H]1Cc2ccccc2O[C@@H]1C(F)(F)F`, the “% Inhibition” value is recorded as 7% and the Z score is given as -0.84.
`Cc1sc2ncnc(NC[C@H]3CCCN3S(C)(=O)=O)c2c1C`: the “% Inhibition” value is -12% and the Z score is listed as 1.38.
In the case of `Cc1cc(=O)[nH]c(NC2CCCCC2)n1`, the “% Inhibition” value is on record as 2% and the Z score is -0.3.
The like results for `Cc1ncsc1CCS(=O)(=O)N1C[C@H](C)Oc2cc(F)ccc21` were, in that order, -12% and 1.05.
The like results for `COc1ccc(CCNC(=O)N2CC(c3nc(C4CC4)no3)C2)cc1` were, in that order, -11% and 2.18.
In the same order, the values of `Cc1nocc1NC(=O)N(C)C1(C(F)(F)F)CC1` are 9% and -1.02.
Regarding `COc1cc(CN(C)Cc2nc(C)c[nH]2)ccc1OC[C@@H](O)CN1CCOCC1`, the “% Inhibition” value is -7% and the Z score came out at 0.91.
In the same order, the values of `C[C@@H](NC(=O)N1CCN(C(=O)c2cccc(F)c2)CC1)c1cccc(O)c1` are 0% and -0.02.
In the same order, the values of `O=C1C2CCCN2C(=O)N1C1CCN(c2ccc(F)c(Cl)c2)C1` (configuration not stated) are -4% and 0.55.
In the same order, the values of `O=C(NCc1ccncc1)c1cccc(Nc2c(Oc3cccc(Cl)c3)cnn(-c3ccccc3)c2=O)c1` are -8% and 0.96.
Regarding `CCn1nccc1C(=O)N1CCC(N2C[C@H](Oc3ccccc3)[C@@H]2c2ccncc2)CC1`, the “% Inhibition” value is -10% and the Z score is listed as 1.25.
On to `FC(F)(F)c1ccnc(NOCc2ccccc2)n1`, for which the “% Inhibition” value was -25% and the Z score worked out at 2.29.
In the same order, the values of `CN(Cc1cccnc1)Cc1cnc(NS(=O)(=O)c2ccccc2)nc1` are 2% and -0.32.
In the same order, the values of `C[C@H](O)CN1CCC(n2nccc2NC(=O)c2ccc3c(c2)OCO3)CC1` are -4% and 0.5.
In the case of `COc1ccc(-c2csc(CCNC(=O)c3cc(OC)c(OC)c(OC)c3)n2)cc1`, the “% Inhibition” value amounted to 2% and the Z score was -0.23.
The like results for `Cc1cc(=O)cc(C(=O)N[C@@H]2C[C@H]3OCC[C@@H]23)[nH]1` were, in that order, -7% and 1.24.
Regarding `CN(CCCC1CCCC1)c1nccnc1C(=O)O`, the “% Inhibition” value was -13% and the Z score amounted to 1.85.
Regarding `COc1ccccc1C(=O)Nc1ccc2c(c1)NC(=O)C[C@H]2c1ccc(O)cc1`, the “% Inhibition” value is recorded as 0% and the Z score turned out to be 0.
Regarding `COc1cccc(NC(=O)N2CC[C@H]3CC(=O)Nc4ccc(-c5cnn(C)c5)cc4OCC[C@H]3C2)c1`, the “% Inhibition” value was -2% and the Z score is 0.26.
The like results for `COCC1(NC(=O)c2ccc(-c3cnccc3N)cc2)CCCC1` were, in that order, -5% and 0.82.
Consider `CS(=O)(=O)c1ccc(N2CC[C@]3(C2)CC3(F)F)cc1`, for which the “% Inhibition” value is 4% and the Z score is -0.6.
The like results for `CCn1nccc1C(=O)NCCc1ncc(C)n1C1CCCCCC1` were, in that order, -6% and 0.85.
The like results for `COc1ccc(CCc2n[nH]c(NC(=O)c3cccnc3)n2)cc1OC` were, in that order, 28% and -3.51.
Consider `C#CC[C@H]1CCCN(c2nnnn2CCN2C(=O)CNC2=O)C1`, for which the “% Inhibition” value is -13% and the Z score is given as 1.59.
`O=C(NCc1cccnc1)[C@]1(F)CCCN(S(=O)(=O)c2ccccc2F)C1`: the “% Inhibition” value is listed as -31% and the Z score is recorded as 2.72.
The like results for `O=C(NCC(=O)N1CCCC1)NCc1ccc(Br)cc1` were, in that order, 4% and -0.59.
The like results for `O=C(CCC(=O)c1ccc2c(c1)OCCCO2)Nc1ncccc1O` were, in that order, -12% and 1.89.
The like results for `CN(CCOC(=O)c1cc[nH]n1)c1ccccc1` were, in that order, -9% and 1.04.
Turning to `C[C@H]1CCOCCN1C(=O)Nc1nc(C2CCC2)cs1`, the “% Inhibition” value is reported as -5% and the Z score was determined as 0.47.
In the same order, the values of `O=C(NCCn1c(=O)[nH]c2ccsc2c1=O)c1ccccc1Cl` are -10% and 1.7.
With `CN(c1ccccc1C(=O)O)S(=O)(=O)c1cccc2nsnc12`, the “% Inhibition” value is given as -4% and the Z score turned out to be 0.56.
Take `Cc1nc(C(=O)N[C@@H](C)Cn2cncn2)cs1`: the “% Inhibition” value was -10% and the Z score came out at 2.07.
In the same order, the values of `COc1ccc(NC(=O)C2(NC(=O)[C@H](C)Oc3ccc(F)c(F)c3)CCCC2)cc1OC` are -9% and 1.46.
